According to PMC4336329 (PLoS ONE, 2015):
In all, about 310,000 compounds went through this assay and about 2,200 (0.71%) showed an effect of 50% or more. The effect is printed as a negative number. This is one part of the list.

Target: human ether-à-go-go-related gene (hERG) potassium channel (human, UniProt Q12809)
Test: primary screen, population patch clamp on CHO cells stably expressing hERG

Sequence of human ether-à-go-go-related gene (hERG) potassium channel (Q12809 whole entry, looked up): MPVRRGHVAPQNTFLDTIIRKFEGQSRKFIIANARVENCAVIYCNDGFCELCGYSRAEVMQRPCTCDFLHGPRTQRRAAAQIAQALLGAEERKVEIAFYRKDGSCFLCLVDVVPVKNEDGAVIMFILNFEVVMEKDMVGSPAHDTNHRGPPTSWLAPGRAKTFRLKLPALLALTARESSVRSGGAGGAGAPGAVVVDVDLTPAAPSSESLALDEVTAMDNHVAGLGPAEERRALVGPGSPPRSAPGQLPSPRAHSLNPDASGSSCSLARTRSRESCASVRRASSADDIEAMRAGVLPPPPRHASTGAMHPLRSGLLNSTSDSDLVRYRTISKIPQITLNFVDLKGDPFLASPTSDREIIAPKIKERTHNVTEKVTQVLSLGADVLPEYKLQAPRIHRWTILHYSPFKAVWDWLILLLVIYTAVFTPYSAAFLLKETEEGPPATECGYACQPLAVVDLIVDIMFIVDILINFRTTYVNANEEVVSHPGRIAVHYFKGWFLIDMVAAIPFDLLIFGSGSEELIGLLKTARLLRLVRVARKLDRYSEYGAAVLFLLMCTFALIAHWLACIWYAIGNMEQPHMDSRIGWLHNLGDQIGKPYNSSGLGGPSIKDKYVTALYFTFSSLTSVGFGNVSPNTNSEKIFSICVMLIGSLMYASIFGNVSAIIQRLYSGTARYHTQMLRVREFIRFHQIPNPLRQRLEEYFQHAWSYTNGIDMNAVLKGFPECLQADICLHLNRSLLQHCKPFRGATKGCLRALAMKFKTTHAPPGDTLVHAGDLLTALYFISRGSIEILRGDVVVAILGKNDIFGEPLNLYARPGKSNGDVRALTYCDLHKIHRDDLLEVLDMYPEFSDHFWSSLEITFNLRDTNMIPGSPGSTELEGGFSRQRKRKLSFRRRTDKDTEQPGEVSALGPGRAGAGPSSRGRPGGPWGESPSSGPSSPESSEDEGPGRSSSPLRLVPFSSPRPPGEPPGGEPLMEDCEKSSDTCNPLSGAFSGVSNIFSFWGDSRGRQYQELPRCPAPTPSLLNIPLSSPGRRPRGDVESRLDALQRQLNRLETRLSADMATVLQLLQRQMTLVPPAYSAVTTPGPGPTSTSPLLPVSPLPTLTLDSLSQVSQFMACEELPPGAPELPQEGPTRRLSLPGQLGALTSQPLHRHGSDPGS

Compared with `O=C(Oc1ccccc1C(=O)Oc1ccccc1)c1cccnc1`, `COc1cccc(NC(=O)CN(C)C(=O)c2ccccc2CCc2ccccc2)c1` is higher in “hERG current change (%, negative = inhibition) at 1uM” value: 7.66% for the first, 13.3% for the second.

Compared with `C=C1CCC[C@]2(C)C[C@H]3OC(=O)C(CNCC(OC)OC)[C@H]3CC12` (some centres unmarked), `CC(C)Oc1ccc(S(=O)(=O)N2CCOCC2)cc1NC(=O)C1CSC2(C)CCC(=O)N12` (centres unmarked) is lower in “hERG current change (%, negative = inhibition) at 1uM” value: 18.4% for the first, 8.32% for the second.

Going from `CCCCCCCC(=O)Nc1cc(C(=O)NCCC)ccc1N1CCC2(CC1)CC(c1ccccc1)=NO2` to `COc1ccccc1Cn1c(=S)[nH]c2cc(C(=O)NCCN3CCOCC3)ccc2c1=O`, the “hERG current change (%, negative = inhibition) at 1uM” value rises from 0.0883% to 1.24%.

Compared with `COc1cc(NC(=O)CSc2cc(C)c3cc(C)cc(C)c3n2)c(C(=O)O)cc1OC`, `COc1ccc2nc(SCC(=O)Nc3ccc4[nH]c(=O)[nH]c4c3)[nH]c2c1` is lower in “hERG current change (%, negative = inhibition) at 1uM” value: 11.5% for the first, 8.35% for the second.

First: CCC(=O)c1cn(Cc2ccc(C#N)cc2)c2ccccc12
Second: Cc1ccc(S(=O)(=O)Nc2cc(C)cn(Cc3ccccc3)c2=O)cc1
The “hERG current change (%, negative = inhibition) at 1uM” value of the first is lower: -9.44% for the first, 14.7% for the second.

Compared with `C=CCN(c1ccc(C(=O)NCCc2ccccc2)cc1)S(C)(=O)=O`, `CN(C)S(=O)(=O)N(CC(=O)NCc1ccccc1)c1ccccc1` is higher in “hERG current change (%, negative = inhibition) at 1uM” value: -0.77% for the first, 7.88% for the second.

Compared with `O=C(NCCc1ccc(Cl)cc1)C1CCCN1C(=O)Nc1ccc(F)cc1` (centres unmarked), `COc1ccc(C(=O)N2CCCC(Nc3ccc(F)cc3)C2)cc1F` (centres unmarked) is higher in “hERG current change (%, negative = inhibition) at 1uM” value: -0.166% for the first, 10.4% for the second.

First: Cc1ccc(NS(=O)(=O)c2cc(C(=O)N3CCCC3)ccc2C)cc1C
Second: Cc1cc(C)nc(NS(=O)(=O)c2ccc(NC(=O)c3snnc3C)cc2)n1
The “hERG current change (%, negative = inhibition) at 1uM” value of the first is lower: 8.34% for the first, 9.16% for the second.

Going from `O=S(=O)(NC1CCCCCCC1)c1ccc(F)cc1` to `COc1cccc(-n2c(=O)c3sccc3n(CC(=O)NC3CCCCC3)c2=O)c1`, the “hERG current change (%, negative = inhibition) at 1uM” value rises from 12.2% to 15.2%.

Going from `Cc1c(C(c2ccc(Cl)cc2Cl)c2c(O)c3ccccc3oc2=O)c(=O)n(-c2ccccc2)n1C` (centres unmarked) to `Cc1cc(/C([O-])=C(/C(=S)Nc2ccc(F)cc2)[n+]2ccccc2)c(C)n1Cc1ccccc1Cl`, the “hERG current change (%, negative = inhibition) at 1uM” value rises from -4.08% to 16%.

Going from `O=C(C1CCN(Cc2ccc(OCc3ccccc3)cc2)CC1)N1CCCC1` to `COc1ccc(S(=O)(=O)N2CCN(c3ccccc3)CC2)cc1`, the “hERG current change (%, negative = inhibition) at 1uM” value rises from -14.6% to 8.51%.

Compared with `CCC(C)(C)NS(=O)(=O)c1cc(CN2C(=O)c3cccnc3C2=O)ccc1OC`, `COc1ccc(C2Nc3ccccc3C(=O)N2NS(C)(=O)=O)cc1OC` (centres unmarked) is higher in “hERG current change (%, negative = inhibition) at 1uM” value: 11.4% for the first, 11.7% for the second.

First: O=C(c1ccccc1F)N1CCN(c2ccc([N+](=O)[O-])c(NCC3CCCO3)c2)CC1 (centres unmarked)
Second: NS(=O)(=O)c1ccc(NCC2COc3ccccc3O2)c([N+](=O)[O-])c1 (centres unmarked)
The “hERG current change (%, negative = inhibition) at 1uM” value of the first is lower: -10.1% for the first, 17% for the second.

Going from `COc1ccc2oc(C(=O)NCC(Cc3ccccc3)N(C)C)c(C)c2c1` (centres unmarked) to `COc1ccc(N=Cc2c(O)n(Cc3ccccc3)c(=S)[nH]c2=O)c(OC)c1`, the “hERG current change (%, negative = inhibition) at 1uM” value rises from -6.57% to 2.11%.

Compared with `O=C(CSc1nnc(-c2ccncc2)o1)c1ccc2c(c1)OCCO2`, `O=C1C(=O)N(Cc2cccnc2)C(c2ccc(Br)cc2)/C1=C(\O)c1ccc2c(c1)OCCO2` (centres unmarked) is lower in “hERG current change (%, negative = inhibition) at 1uM” value: 9.65% for the first, 5.38% for the second.

Going from `Cc1ccc(Cc2c(C)nc3nc(SCC(=O)NCCCN4CCCCC4)nn3c2C)cc1` to `Cc1ccc(Sc2ccc(CN3CCCCC3)cc2[N+](=O)[O-])cc1`, the “hERG current change (%, negative = inhibition) at 1uM” value rises from -19.7% to 29.3%.

First: COC(=O)Nc1ccc(S(=O)(=O)N2CCN(CCN3C(=O)C4C5C=CC(C5)C4C3=O)CC2)cc1 (centres unmarked)
Second: O=C(Nc1ccc(S(=O)(=O)N2CCOCC2)cc1)c1ccc(Cl)cc1Cl
The “hERG current change (%, negative = inhibition) at 1uM” value of the first is lower: 0.886% for the first, 3.4% for the second.

First: CCc1cccc(C)c1NC(=O)C1CC=CCC1C(=O)O (centres unmarked)
Second: CCOC(=O)C(=O)Nc1ccccc1C(=O)NC(C)C
The “hERG current change (%, negative = inhibition) at 1uM” value of the first is higher: 6.97% for the first, 5.82% for the second.

Compared with `Cc1ccc2c(CN(C)Cc3cccc(Cl)c3)cc(=O)oc2c1C`, `Cc1ccc(C(=O)COC(=O)c2ccc(Br)o2)cc1C` is lower in “hERG current change (%, negative = inhibition) at 1uM” value: 12.2% for the first, 7.52% for the second.

Going from `Cc1cc(NC(=O)COC(=O)CCCOc2ccc(Cl)cc2C)no1` to `COc1ccccc1-c1nc(COc2ccc(Cl)cc2Cl)no1`, the “hERG current change (%, negative = inhibition) at 1uM” value rises from 11.7% to 17.5%.

Going from `Cn1c(/N=C/c2cc(Cl)ccc2O)nc2ccccc21` to `O=C(C/C=N/OCc1c(Cl)cccc1Cl)c1ccccc1`, the “hERG current change (%, negative = inhibition) at 1uM” value falls from -1.55% to -6.6%.

First: CCN1CCN(c2nc3c(C)cccn3c(=O)c2/C=C(\C#N)C(=O)NCCCOC)CC1
Second: CCOC(=O)C1CCCN(c2c(Nc3cccc(C)c3)c(=O)c2=O)C1 (centres unmarked)
The “hERG current change (%, negative = inhibition) at 1uM” value of the first is higher: 8.74% for the first, 3.17% for the second.

Compared with `C=C(C)[C@H]1CN[C@H](C(=O)O)[C@H]1CC(=O)O`, `CC(C)C[C@H](NC(=O)OC(C)(C)C)C(=O)N[C@@H](CO)[C@H](O)[C@@H]1C[C@@H]1C(=O)NC1CC1` is lower in “hERG current change (%, negative = inhibition) at 1uM” value: 10% for the first, 4.75% for the second.

First: CC(C)(C)OC(=O)N1CCC[C@H]1c1nnc(SC/C=C/c2ccccc2)o1
Second: CC(=O)Nc1ccccc1NC(=O)CC(C)(C)C
The “hERG current change (%, negative = inhibition) at 1uM” value of the first is higher: -0.126% for the first, -8.06% for the second.

Going from `CCCCN(CC)C(=S)Nc1ccc2nc3n(c(=O)c2c1)CCCCC3` to `N#C/C(=C/c1cccc([N+](=O)[O-])c1)c1nnc2n1CCCCC2`, the “hERG current change (%, negative = inhibition) at 1uM” value rises from -12.2% to -3.83%.

Going from `O=C(NCCC(NS(=O)(=O)OCC(Cl)(Cl)Cl)c1ccccc1)C(F)(F)F` (centres unmarked) to `CC(C)CC(=O)NC(=S)NCc1ccccc1`, the “hERG current change (%, negative = inhibition) at 1uM” value rises from 1.59% to 7.19%.

First: O=C(O)C(=O)O.O=C1CN(C(=O)CNCc2ccccc2Cl)c2ccccc2N1
Second: CC1CN(Cc2ccccc2)c2ccccc2NC1=S (centres unmarked)
The “hERG current change (%, negative = inhibition) at 1uM” value of the first is lower: 7.81% for the first, 8.37% for the second.

First: COc1ccccc1C(=O)NCC(=O)N/N=C/c1ccc2c(c1)OCO2
Second: O=C(CCCCn1c(=O)[nH]c2ccccc2c1=O)NCc1ccc2c(c1)OCO2
The “hERG current change (%, negative = inhibition) at 1uM” value of the first is higher: 13.7% for the first, 10.7% for the second.

Going from `CN1C(=O)N(C)C(=O)C(CCc2ccccn2)(CCc2ccccn2)C1=O` to `Cn1c(=O)[nH]c(=O)c2c1nc(Sc1ncccn1)n2CCCc1ccccc1`, the “hERG current change (%, negative = inhibition) at 1uM” value falls from 3.49% to -6.2%.

Going from `Cc1cc(=O)c(C(=O)O)nn1-c1ccccc1` to `CC(C)OC(=O)c1cccc(NC(=O)c2ccccc2)c1`, the “hERG current change (%, negative = inhibition) at 1uM” value falls from 8.46% to 2.94%.

Compared with `O=C(CCCC(=O)N(CC(=O)NC1CCCC1)Cc1ccc2c(c1)OCO2)Nc1ccccn1`, `O=C(c1cc(F)ccc1F)C1CCCN(C(=O)CSc2ccccn2)C1` (centres unmarked) is lower in “hERG current change (%, negative = inhibition) at 1uM” value: 2.01% for the first, -3.1% for the second.

Going from `S=C(NCc1cccnc1)Nc1ccc(Cl)cc1Cl` to `COc1ccc(N(CC(=O)Nc2ccc3c(c2)OCCO3)S(=O)(=O)c2cccnc2)cc1`, the “hERG current change (%, negative = inhibition) at 1uM” value rises from 1.81% to 2.97%.

Compared with `CCOC(=O)C1=C(C)NC(C)=C(C(=O)OCC)C1C(=O)OCC(=O)NCCc1ccc(S(N)(=O)=O)cc1`, `CCOc1cc(NC(=O)c2ccco2)c(OCC)cc1NC(=O)Cc1cccc(OC)c1` is lower in “hERG current change (%, negative = inhibition) at 1uM” value: 19.1% for the first, 5.79% for the second.

Compared with `Cc1ccc2nc(-c3ccccc3)c(CN3CCSCC3)n2c1`, `Cc1ccc(Oc2nc(C(F)(F)F)nc3ccccc23)cc1` is lower in “hERG current change (%, negative = inhibition) at 1uM” value: 9.56% for the first, 6.66% for the second.

Going from `COc1cccc(CNS(=O)(=O)c2ccc3c(c2)N(C)CCO3)c1` to `Brc1ccc(CNc2cc3c(cc2Br)OCCO3)cc1`, the “hERG current change (%, negative = inhibition) at 1uM” value rises from 5.96% to 17.4%.

First: CC(C)(O)c1cn(-c2nonc2N)nn1
Second: CCCn1nnnc1NCc1ccc(C(C)C)cc1
The “hERG current change (%, negative = inhibition) at 1uM” value of the first is higher: 10.5% for the first, 7.76% for the second.

Compared with `O=C(N/N=C/c1ccc(OC2CSC2)cc1)c1ccccc1`, `O=C(O)Cc1sc(Nc2cccc3ccccc23)nc1-c1ccc(F)cc1` is higher in “hERG current change (%, negative = inhibition) at 1uM” value: -0.636% for the first, 14.5% for the second.

First: CCOc1ccc(N2CC(O)Cn3c2nc2c3c(=O)n(CCCc3ccccc3)c(=O)n2C)cc1 (centres unmarked)
Second: N#CCCn1cc(C(=O)Nc2ccc(C(=O)O)cc2)c(-c2cc3ccccc3o2)n1
The “hERG current change (%, negative = inhibition) at 1uM” value of the first is lower: 11.7% for the first, 15.4% for the second.

Compared with `CC(=O)Nc1ccc(NC(=O)C(C)OC(=O)c2cccc(S(=O)(=O)N3CCCCC3)c2)cc1` (centres unmarked), `CSc1ncc(Cl)c(C(=O)Nc2ccc(S(=O)(=O)Nc3nccc(C)n3)cc2)n1` is lower in “hERG current change (%, negative = inhibition) at 1uM” value: 13.3% for the first, -8.05% for the second.

First: CCOC(=O)CNC(=S)N(Cc1cccs1)C1CCCCC1
Second: CCCNC(=O)CNC(=S)N(Cc1ccccc1F)C1CCCCC1
The “hERG current change (%, negative = inhibition) at 1uM” value of the first is higher: 10.8% for the first, 2.76% for the second.

Going from `CSc1ccc(C(=S)N2CCN(C(c3ccccc3)c3ccccc3)CC2)cc1` to `CC(=O)NC(Cc1c[nH]c2ccccc12)C(=O)NCc1ccco1` (centres unmarked), the “hERG current change (%, negative = inhibition) at 1uM” value rises from 7.8% to 15.4%.

First: Cc1cc(C(=O)NNC(=O)CCC2CCCCC2)c(C)o1
Second: CC1(C)C2CC=C(/C=N/NC(=O)C(N)=O)C1C2 (centres unmarked)
The “hERG current change (%, negative = inhibition) at 1uM” value of the first is higher: 12.5% for the first, 10.3% for the second.

Going from `OCC1(CO)COC(c2cccnc2)N1` (centres unmarked) to `O=[N+]([O-])c1ccc2c(c1)oc1ccccc12`, the “hERG current change (%, negative = inhibition) at 1uM” value rises from 4.05% to 19.5%.
